# This is one part of the list.
# System: PfHDP1 homeodomain (GST-tagged)
# Test: gcPBM binding intensity (ln(normalized median fluorescence intensity)); higher = stronger DNA binding
# Procedure, shortened: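 Binding intensity is the highest Masliner-normalised natural-log median intensity over replicate spots in either probe orientation. To obtain it, GST-tagged P. falciparum DNA-binding domains made in E. coli were incubated for 1 h on an Agilent 4 × 180k array of primer-extended double-stranded 36-bp intergenic genomic probes plus negative controls. Detection used Alexa488 anti-GST antibody with scanning at 488 nm.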
row,Sequence,gcPBM binding intensity (ln)
1,TTTTACAATAACAATACACACTATAATATGTAAATA [CACACA_site6772],6.57
2,TATATGTATGTTTGTGTGCACACATAAATATTATAT,10.5
3,AATGTACAAATACGTACACACATATATATATATATA [CACACA_site1542],9.39
4,AAATAAAGGAAATGTATATCAACATTAAAATAAGGC [CACACA_negctrl_site441],6.92
5,GTATAAAATATTTTATGTACATAATATATATATATA [XGTACX_site2489],8.9
6,ATATACATAATTTGGAGTACAATATCATATAAATAT [XGTACX_site6334],6.4
7,AGTAAATTTGATGGTCGTACAAAAAAAAAGTAGGAC [XGTACX_site2600],6.81
8,ACGAAGTATATGAATACACACATATTTTTAATGAAA [CACACA_site4070],6.12
9,ATATATATATATATTGCACACACAATTATTATTATT [CACACA_site8721],10.6
10,ATATATATATATATATGTACATATTTTTGTTTGATG [XGTACX_site51],9.27
11,CAGATATTCATATAAACACACATACAAATTATGTAT [CACACA_site4258],6.49
12,TACAATCTAAAATACACACGCACACCGAAAAAAAAA [CACACA_site3520],6.95
13,TATATATATAATTAAGCATGCTAGAAACCTTTGAAA [TGCATGCA_site489],6.66
14,TGAAGAATATTTTTCACACATATATATATATATATA [CACACA_site6080],9.36
15,TAACATATAAGTGTGTGTACGTACTGCGTATAATAT [XGTACX_site8597],7.15
16,TGAATATATAAATATGCACACTTCTATTATAAATAA [CACACA_site5796],8.8
17,GACAAACAATATGAATGTACATAAAAATATAACTAA [XGTACX_site1167],6.77
18,TTGTTCTTATTTCATTTTTATATGATATTTCATTAT [CACACA_negctrl_site1619],6.79
19,AATATTTATTTAATTTCACACAGGTCTTTTTTTTTT [CACACA_site5188],6.16

row,Sequence,gcPBM binding intensity (ln)
1,TATTTATTGTGACACTTTTATTATTTTATGATAAAA [CACACA_negctrl_site37],6.6
2,GTGTTCTTGTTATACACACACATATATATATATATA [CACACA_site1032],9.45
3,TGAAAGAAGCATAAATGTACACACATATTTATATAT [XGTACX_site2645],6.55
4,GAGAAAAGGAAATAACGTACACATATGCATATCCAA [XGTACX_site5858],6.96
5,GTAATATTTTATAGTAGTACATATTTTTATTATTTT [XGTACX_site3333],6.15
6,GAGAGGTCAGTTCACAGTACCCAGAAACTCTACGAG [XGTACX_site2559],5.91
7,AAAAAAATTAATATGTCAGCACATATATACATACAT [GTGCAC_negctrl_site110],6.17
8,TATATATATAAAAAAGCACACATACATACATACATA [CACACA_site8196],7.15
9,TTTTATCGTTTTTTTTTTTTTTTTTTTTTTTTTTTT [CACACA_negctrl_site1309],7.33
10,TTTGTTCATATGAAATGTACAAAAAAAAAAAAAAAA [XGTACX_site8849],6.12
11,CCTTATAAATACTGCACACATAAAATATATATTATC [CACACA_site2806],9.18
12,ATGTAGAAGTAATGCACACATATGTATTTATATATA [CACACA_site5391],10.9
13,TTTTAACATATAAGTACACACATATAATCAATCATA [CACACA_site2325],6.5
14,ATAAACGTTTTTGAAAGTACATATCATTCATTTGAT [XGTACX_site200],6.53
15,ATATAATATTTATATGTACACACCTTAATCCTTAAA [CACACA_site3555],6.68
16,AAAAAAAAGAAAAAAAAAAAAAAAAAAAAAAAAAAA [CACACA_negctrl_site489],5.92
17,CGCACACGCAGACACACACACACATATAAATAAATA [CACACA_site7101],6.87
18,ATATATATATATAAATGTACAGGCTTATCTCTTATT [XGTACX_site1828],9.02
19,TGTATTATATATGTGTGTACATATTTTTTTTTTTTT [XGTACX_site3351],6.54

row,Sequence,gcPBM binding intensity (ln)
1,ATACAAATTTATATTTCACACATTATTATATACTTA [CACACA_site6034],6.69
2,TCTGAAAATTAGAAAAGTACAAAATGGTATAGGAAA [XGTACX_site4396],6.82
3,AAATTATTTCAAATGTTGCACTAAAAATAAAATTAT [GTGCAC_site9460],8.78
4,ATTAGTATATTTCTCTGTACTTACATTAAAATATAA [XGTACX_site2217],6.41
5,TTTTATCAATAAATTCGTACACATGAACTAGAGAGT [XGTACX_site5758],6.76
6,TTTTTATTTATATTTCATTGAAGTTAAATTATTTTA [XGTACX_negctrl_site575],5.88
7,TACATTCTAATAATTGCACACTGGTTATTAAAAGGA [CACACA_site1614],9.45
8,TCCTTAAAATATGGTTGTACGTACATCCTAGGTGTT [XGTACX_site7068],6.52
9,AATTTAATATTCATCTCTAAAGCTATAACAATTACT [CACACA_negctrl_site1079],6.07
10,AAAAAAAAAAATACTTGTACTTATATAATATATTAT [XGTACX_site8333],6.16
11,AAGAAAATATAAAATGCACACTATAAATTGTATATA [CACACA_site7928],9.72
12,AAAAAAAAAAAAAATTGTACATTAAATTAAAAGAAA [XGTACX_site8708],6.14
13,TGTTGTTCCAATTTTTGTACATAAAACATATATATA [XGTACX_site5719],7.04
14,TTTTTTTTTTTGGCTAGTACATATGTATTTAAAATG [XGTACX_site7770],6.41
15,GGTGAAATTATTTCTACATGCAGAAATAATTAATTA [TGCATGCA_site194],6.4
16,AATTTAATATAATGCACACATAAAAAAAAAATCAAA [CACACA_site1],9.95
17,AAATTATTTCTTTGCGCATGTAGCTTTTATACTATT [TGCATGCA_site819],7.44
18,ACATAAATAATAAAAACACACATATGTACCTATATA [CACACA_site6982],6.55

# From the supplement of paper PMC11417369
